Measured values published in PubChem BioAssay AID1347165 (National Center for Advancing Translational Sciences (NCATS), 2019).
Hit rate of the full screen: of about 220,000 compounds, about 5,700 (2.6%) were called active. This list was built around the results that the source calls inconclusive (neither active nor inactive); the mix of calls is not that of the screen. The call rests on the fitted dose curve; in most records, active means well fitted inhibition curve with a large enough effect; inconclusive means small, poorly fitted or top-dose-only effect; inactive means no such curve, though single readings can be large or run the other way. Potencies of inconclusive entries are doubtful fits and often do not repeat.

biological target: Lysine-specific demethylase 5B (Homo sapiens) (UniProt Q9UGL1); assay: Primary screen for KDM5B Histone Demethylases FDH-coupled qHTS; conditions: FDH-coupled NADH fluorescence (FDH is formaldehyde dehydrogenase); activity change, negative = inhibition: at 57.7 µM (top of the series) unless noted; further: nearly all actives have a fitted effect of over 70% in size; on activity change, negative = inhibition: 0% is about no effect
How it was run: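 KDM5BΔAP (200 nM final) in 50 mM HEPES pH 7.5, 0.01% Tween-20 was preincubated 10 min at RT with compound over a concentration range. Substrate mix (H3K4me3 12.5 µM, α-KG 25 µM, Fe²⁺, ascorbate, NAD⁺, FDH) was added, and NADH fluorescence change over 30 min gave dose-response curves.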
Potency means the concentration at half of the fitted maximal effect; tags describe the fitted curve by direction and shape.

UniProt Q9UGL1, sequence (Q9UGL1 whole entry, looked up): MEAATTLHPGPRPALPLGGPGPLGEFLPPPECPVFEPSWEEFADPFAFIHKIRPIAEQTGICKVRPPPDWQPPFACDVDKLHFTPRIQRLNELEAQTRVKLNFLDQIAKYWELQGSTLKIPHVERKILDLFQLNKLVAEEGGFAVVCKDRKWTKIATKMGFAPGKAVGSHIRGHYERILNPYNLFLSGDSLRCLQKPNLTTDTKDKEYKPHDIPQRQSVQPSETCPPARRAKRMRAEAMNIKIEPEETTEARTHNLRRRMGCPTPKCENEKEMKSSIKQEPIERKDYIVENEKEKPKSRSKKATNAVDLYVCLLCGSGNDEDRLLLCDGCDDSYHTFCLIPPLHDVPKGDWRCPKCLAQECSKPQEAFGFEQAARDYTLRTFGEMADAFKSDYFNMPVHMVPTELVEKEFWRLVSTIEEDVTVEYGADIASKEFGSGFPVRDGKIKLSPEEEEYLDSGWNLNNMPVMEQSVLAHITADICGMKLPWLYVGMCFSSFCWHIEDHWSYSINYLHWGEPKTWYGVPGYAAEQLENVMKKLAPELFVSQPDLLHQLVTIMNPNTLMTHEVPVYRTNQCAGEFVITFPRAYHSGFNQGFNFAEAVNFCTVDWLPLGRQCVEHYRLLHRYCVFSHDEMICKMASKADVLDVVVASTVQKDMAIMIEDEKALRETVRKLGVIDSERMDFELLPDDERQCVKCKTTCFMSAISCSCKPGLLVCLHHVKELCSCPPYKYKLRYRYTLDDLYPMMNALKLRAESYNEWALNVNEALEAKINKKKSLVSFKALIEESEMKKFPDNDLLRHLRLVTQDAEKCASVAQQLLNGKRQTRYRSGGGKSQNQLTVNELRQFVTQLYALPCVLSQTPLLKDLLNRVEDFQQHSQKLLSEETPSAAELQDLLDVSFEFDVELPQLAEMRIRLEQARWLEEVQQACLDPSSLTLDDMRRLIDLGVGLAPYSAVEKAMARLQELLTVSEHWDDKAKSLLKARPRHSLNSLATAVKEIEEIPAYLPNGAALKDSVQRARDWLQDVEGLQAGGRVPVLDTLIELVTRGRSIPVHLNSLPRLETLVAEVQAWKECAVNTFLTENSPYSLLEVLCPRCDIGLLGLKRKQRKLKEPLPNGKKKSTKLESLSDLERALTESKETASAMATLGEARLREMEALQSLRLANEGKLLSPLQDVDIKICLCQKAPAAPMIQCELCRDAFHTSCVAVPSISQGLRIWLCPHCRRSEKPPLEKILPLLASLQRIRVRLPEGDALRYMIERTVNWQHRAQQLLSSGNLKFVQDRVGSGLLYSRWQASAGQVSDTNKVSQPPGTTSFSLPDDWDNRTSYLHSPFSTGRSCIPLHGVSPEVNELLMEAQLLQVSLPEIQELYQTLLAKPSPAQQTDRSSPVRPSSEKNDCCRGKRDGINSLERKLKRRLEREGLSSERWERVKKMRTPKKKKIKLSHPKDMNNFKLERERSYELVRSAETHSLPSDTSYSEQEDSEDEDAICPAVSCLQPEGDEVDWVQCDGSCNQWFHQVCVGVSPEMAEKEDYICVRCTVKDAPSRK

Structure (SMILES) | Potency | activity change, negative = inhibition
CC(=O)Nc1ccc(/C=C/c2nc(-c3ccccc3O)n(-c3ccccc3)n2)cc1 | inconclusive: 35.5 µM [inhibitor, partial curve, poor fit] | –
Cc1cc(C)cc(Oc2cnn(-c3ccc(C(F)(F)F)cn3)c(=O)c2Cl)c1 | inconclusive: 39.8 µM [inhibitor, single point] | –
Cn1ccnc1-c1cn(CCNC(=O)c2ccc(F)cc2)nn1 | inconclusive: 15.8 µM [inhibitor, single point] | –
O=C(CSc1oc(-c2ccccc2)nc1S(=O)(=O)c1ccc(Cl)cc1)Nc1ccc(F)cc1 | inconclusive: 31.6 µM [inhibitor, single point] | –
CN1C/C(=C/c2ccncc2)C(=O)/C(=C/c2ccncc2)C1 | inconclusive: 39.8 µM [inhibitor, single point] | –
Cc1ccc(Cn2cc(CCC(=O)NC3CCC(C)CC3)c3ccccc32)cc1 (stereo not drawn) | inconclusive: 25.1 µM [inhibitor, single point] | –
Cc1ccccc1OCc1nnc(SCc2c(Cl)cccc2Cl)n1C | inactive | –
CO[C@H]1C[C@@H](O)C12CCN(C(=O)CCc1ccc(-c3cccs3)o1)CC2 | active: 14.1 µM | –
N#CCCN(C(=O)COc1ncnc2sc3c(c12)CCCC3)c1ccccc1 | inactive | –
NC(=O)c1ccc(OC2CCN(C(=O)CCc3ccccc3)C2)nc1 (stereo not drawn) | inactive | –
CCOC(=O)c1cccc(NC(=O)NCc2cccn2Cc2ccccc2)c1 | inconclusive: 7.08 µM [inhibitor, partial curve, poor fit] | –
Cn1cc(-c2cnc3[nH]cc(CC(=O)NCc4ccc5c(c4)OCO5)c3c2)cn1 | inactive | –
COc1cccc(CN2CCOC[C@H](Oc3ccc(C(F)(F)F)cn3)C2)c1 | inconclusive: 35.5 µM [inhibitor, partial curve, poor fit] | –
O=C(c1ccco1)N1CC[C@@H]2COCCN(Cc3ccccc3)[C@@H]2C1 | inactive | –
NCCC1CN(Cc2cc3ccccc3s2)CCO1 (stereo not drawn) | inconclusive: 11.2 µM [inhibitor, partial curve] | –
Cc1ccccc1-c1noc(-c2cccnc2NCc2ccco2)n1 | inconclusive: 31.6 µM [inhibitor, partial curve, poor fit] | –
Cc1onc(C(=O)NCc2ccc3[nH]c(-c4ccc(F)cc4)c(C)c3c2)c1CO | inconclusive: 17.8 µM [inhibitor, partial curve, poor fit] | –
O=C(c1cc(-c2ccccc2F)cc2c1OCCN2Cc1cccnc1)N1CC(O)C1 | active: 39.8 µM | –
O=C(Nc1ccnn1Cc1ccccc1)c1cc(=O)c2ccc(Br)cc2o1 | inactive | –
O=C(O)c1ccc(-c2ncc3cnc(-c4cccc(F)c4)cn23)cc1 | active: 35.5 µM | –
COc1ccc2[nH]c3c(c2c1)CCNC31CCN(C(C)C)CC1 | active: 22.4 µM | –
Cc1ccc(C)c(NC(=O)N2CCCC2c2ccccc2Cl)c1 (stereo not drawn) | inactive | –
COc1ccc(-c2cc(C(=O)NCC(C)C)c3ccccc3n2)cc1 | inconclusive: 20 µM [inhibitor, partial curve, poor fit] | –

Structure (SMILES) | Potency | activity change, negative = inhibition
COc1ccc(C(=O)NC2CCN(c3cc(-c4ccc(Cl)cc4)[nH]n3)C2)cc1F (stereo not drawn) | inconclusive: 11.2 µM [inhibitor, partial curve, poor fit] | –
NC(=O)c1cccc(C(=O)Nc2cccc3cccnc23)c1 | inactive | –
Cc1ccccc1COc1ccc2c(=O)c(-c3ccccc3)coc2c1 | inactive | –
O=C(NCc1ccccc1Cl)C1CCCN(S(=O)(=O)c2cccc3nsnc23)C1 (stereo not drawn) | inactive | –
CCn1cc(-c2ccc(Cl)cc2)cc1C(=O)N1CCCN(C)CC1 | inactive | –
O=C(Nc1ccccc1C(F)(F)F)c1cc(=S)[nH]c2ccccc12 | inconclusive: 31.6 µM [inhibitor, partial curve, poor fit] | –
C=CCNC(=S)N/N=C/c1ccc(-c2ccc(Cl)cc2Cl)o1 | inconclusive: 14.1 µM [inhibitor, partial curve, poor fit] | –
COc1ccc(CNC(=O)Nc2cccc(-c3ccc(N4CCOCC4)nn3)c2)cc1 | inconclusive: 25.1 µM [inhibitor, single point] | –
CCCN(CCC)CC(O)Cn1cc(/C=C/C(=O)c2ccc(C)cc2)c2ccccc21 (stereo not drawn) | inconclusive: 28.2 µM [inhibitor, partial curve, poor fit] | –
O=C(NCc1ccccc1F)c1ccc2c(c1)CN(Cc1cncs1)CCO2 | inactive | –
CSc1ccc(NC(=O)N2CCc3nc4cc(-c5ccccc5)[nH]n4c(=O)c3C2)cc1 | active: 25.1 µM | –
COCCn1cnc2ccc(N3CCCC3)nc2c1=O | active: 31.6 µM | –
CN(C)C(=O)c1cc(-c2ccc(Cl)cc2)cn1C | inactive | –
Cc1oc(-c2cccs2)nc1C(=O)NCC(C)(C)N1CCOCC1 | inconclusive: 39.8 µM [inhibitor, single point] | –
Brc1ccc(-c2nc3ccccn3c2Nc2ccc3c(c2)OCCO3)o1 | inconclusive: 31.6 µM [inhibitor, partial curve, poor fit] | –
O=c1n(-c2ccc(C(F)(F)F)cc2)nc2n1CCN(Cc1cccnc1)C2 | inconclusive: 56.2 µM [inhibitor, partial curve, poor fit] | –
COCC(=O)N1CCN(c2oc(-c3ccco3)nc2C#N)CC1 | inconclusive: 10 µM [inhibitor, partial curve, poor fit] | –
CCCCN(CC)C(=O)CSc1nc2n[nH]c(C)c2c(=N)n1-c1cccc(OC)c1 | inconclusive: 12.6 µM [inhibitor, partial curve, poor fit] | –
CCCCCn1c(SCc2ccccc2Cl)nc2c1c(=O)[nH]c(=O)n2C | inactive | –
CCOc1c(CN(C)C(=O)Cn2cccc(OC)c2=O)cccc1OC | inconclusive: 12.6 µM [inhibitor, partial curve, poor fit] | –
Cc1oc(-c2ccc(Cl)cc2)nc1CS(=O)CC(=O)N1CCN(c2cccc(C(F)(F)F)c2)CC1 (stereo not drawn) | inconclusive: 28.2 µM [inhibitor, partial curve, poor fit] | –
O=C(O)/C(=C\C=C\c1ccco1)NC(=O)c1ccccc1 | inconclusive: 17.8 µM [inhibitor, partial curve, poor fit] | –
COc1cccc(N2CCN(c3ncnc4c3nc3n4CCCCC3)CC2)c1 | inconclusive: 2 µM [inhibitor, full curve, poor fit] | –

Structure (SMILES) | Potency | activity change, negative = inhibition
Cc1ccc(-c2nnn(Cc3csc(-c4ccc(C)cc4)n3)n2)cc1 | inactive | –
O=C(/C=C/c1ccccc1O)c1ccc(Cl)cc1Cl | inconclusive: 20 µM [inhibitor, partial curve, poor fit] | –
COCCCn1c(=N)c(C(=O)NCc2ccco2)cc2c(=O)n3ccccc3nc21 | inconclusive: 4.47 µM [inhibitor, partial curve, poor fit] | –
COc1cccc(N2C(=O)CN(C3CCCCC3)[C@H]3CS(=O)(=O)C[C@H]32)c1 | inconclusive: 39.8 µM [inhibitor, single point] | –
COc1cccc(CN2CCCn3nc(C)c(-c4cnccc4C)c32)c1 | inconclusive: 25.1 µM [inhibitor, partial curve] | –
CN1CCC2(C1)CN(CC1CCOCC1)c1ccc(C(=O)Nc3ccn(C)n3)cc12 (stereo not drawn) | inconclusive: 35.5 µM [inhibitor, partial curve, poor fit] | –
COc1ccc2[nH]c(=O)c(CN(C)S(C)(=O)=O)cc2c1 | inconclusive: 39.8 µM [inhibitor, single point] | –
CCN(CC(=O)Nc1ccccc1C(F)(F)F)Cc1coc(-c2ccc(C)cc2C)n1 | inconclusive: 39.8 µM [inhibitor, single point] | –
Cc1cccc(-n2cc(CN3CCN(c4cc(N)nc(N)n4)CC3)cn2)c1 | inactive | –
CCc1cccc(C)c1Nc1c(-c2ccccc2)nc2sccn12 | inconclusive: 31.6 µM [inhibitor, single point] | –
COc1ccc(NC(=O)N2CCN(c3ccc(Cl)cc3)CC2)cc1OC | inactive | –
Cc1ccc(C#N)c(=O)n1CC(=O)Nc1ccccc1C(F)(F)F | inconclusive: 15.8 µM [inhibitor, partial curve, poor fit] | –
CCN(CC)[C@H]1[C@@H]2OC[C@@H](O2)[C@@H](NCc2ccc(-c3ccccc3)cc2)[C@@H]1O | inconclusive: 28.2 µM [inhibitor, single point] | –
COc1ccc(-n2[nH]c(-c3ccc(OC)c(OC)c3)cc2=O)cc1 | inconclusive: 3.16 µM [inhibitor, full curve, poor fit] | –
CCOc1ccc(CNC(=O)CSc2cc(=O)n(CC)c3ccccc23)cc1 | inconclusive: 35.5 µM [inhibitor, single point] | –
CCCCCCc1cc2cc(C(C)=O)c(=O)oc2cc1O | inconclusive: 2 µM [inhibitor, partial curve, poor fit] | –
CCOCCCNC(=O)c1ccccc1Sc1ccccc1C#N | inactive | –
CN1CC(=O)N(c2cccnc2)Cc2c1ncnc2N1CCN(c2ncccn2)CC1 | inactive | –
Cc1noc(-c2ccc(-c3noc(-c4cccc(F)c4)n3)cc2)n1 | – | inconclusive: -655% [inhibitor] [at 11.5 µM]
Cn1cc(C(=O)NCC2CN(Cc3ccccc3)CC23CN(c2ccccc2)C3)cn1 (stereo not drawn) | inconclusive: 31.6 µM [inhibitor, single point] | –
COc1ccc(CNc2cccc(C(=O)O)c2C)cc1OC | inconclusive: 28.2 µM [inhibitor, partial curve, poor fit] | –
O=C(/C=C/c1c(F)cccc1F)c1cc2ccccc2o1 | inconclusive: 28.2 µM [inhibitor, single point] | –
